From the supplement of paper PMC12217912
The other results are listed elsewhere or left out. Sequences were assembled here from the parent chain. Values near 0.05 are background.

B1: TEV protease; numbered along this chain (parent)
chain: MGESLFKGPRDYNPISSSICHLTNESDGHTTSLYGIGFGPFIITNKHLFRRNNGTLVVQSLHGVFKVKDTTTLQQHLVDGRDMIIIRMPKDFPPFPQKLKFREPQREERICLVTTNFQTKSMSSMVSDTSCTFPSGDGIFWKHWIQTKDGQCGSPLVSTRDGFIVGIHSASNFTNTNNYFTSVPKNFMELLTNQEAQQWVSGWRLNADSVLWGGHKVFMVKPEEPFQPVKEATQL

Variants of: B1
Test: raw area under fraction-flipped curve 0-4 h after induction (AUC4h, not background-subtracted), DNA-recorder readout of cleavage of the substrate (dimensionless); higher = more cleavage of the substrate by the protease variant
Conditions: temperature: 34 °C; time window: 0-4 h after rhamnose induction
Experimental: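 In vivo DNA recorder in E. coli TOP10(DE3) ΔrhaA at 34 °C. Each TEVp single-site mutant (parent TEVp 0) is paired with a single-site variant of the 7-mer TEVs (canonical ENLYFQ|S). The substrate sits between flexible linkers in a Bxb1-sfGFP-TEVs-SsrA fusion, so cleavage stabilises Bxb1 and speeds flipping of a recombination array, read by NGS. The value is the raw area under the fraction-flipped curve over 0-4 h after rhamnose induction (AUC4h), with ≥20 reads per time point. It is not background-subtracted; inactive controls average about 0.047.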
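Also: Bxb1 expression induced with 0.2% (w/v) L-rhamnose at OD600 near 0.5, cultures sampled hourly, flipped fraction per protease–substrate barcode pair counted by paired-end Illumina sequencing.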

Variant	area with substrate ENLYFAS	area with substrate ENLYFES	area with substrate ENLYFIS	area with substrate ENLYFNS	area with substrate ENLYFRS	area with substrate ENLYFCS	area with substrate ENLYFFS	area with substrate ENLYFGS	area with substrate ENLYFHS	area with substrate ENLYFKS	area with substrate ENLYFPS	area with substrate ENLYFSS	area with substrate ENLYFTS	area with substrate ENLYFWS	area with substrate ENLYFMS	area with substrate ENLYFVS	area with substrate ENLYFDS	area with substrate ENLYFYS	area with substrate ENLYFLS
MGESLFKGPRDYNPISSSICHLTNESDGHTTSLYGIGFGPFIITNKHLFRRNNGTLVVQSLHGVFKVKDTTTLQQHLVDGRDMIIIRMPKDFPPFPQKLKFREPQREERIWLVTTNFQTKSMSSMVSDTSCTFPSGDGIFWKHWIQTKDGQCGSPLVSTRDGFIVGIHSASNFTNTNNYFTSVPKNFMELLTNQEAQQWVSGWRLNADSVLWGGHKVFMVKPEEPFQPVKEATQL [C111W]	0.0374	0.0585	0.0559	0.0494	0.0732	–	–	–	–	–	–	–	–	–	–	–	–	–	–
MGESLFKGPRDYNPISSSICHLTNESDGHTTSLYGIGFGPFIITNKHLFRRNNGTLVVQSLHGVFKVKDTTTLQQHLVDGRDMIIIRMPKDFPPFPQKLFFREPQREERICLVTTNFQTKSMSSMVSDTSCTFPSGDGIFWKHWIQTKDGQCGSPLVSTRDGFIVGIHSASNFTNTNNYFTSVPKNFMELLTNQEAQQWVSGWRLNADSVLWGGHKVFMVKPEEPFQPVKEATQL [K100F]	0.0682	0.0782	0.06	–	0.0602	0.0498	0.0775	0.0582	0.0523	0.0829	0.0597	0.0409	0.0541	0.0571	–	–	–	–	–
MGESLFKGPRDYNPISSSICHLTNESDGHTTSLYGIGFGPFIITNKHLFRRNNGTLVVQSLHGVFKVKDTTTLQQHLVDGRDMIIIRMPKDFPPFPQKLIFREPQREERICLVTTNFQTKSMSSMVSDTSCTFPSGDGIFWKHWIQTKDGQCGSPLVSTRDGFIVGIHSASNFTNTNNYFTSVPKNFMELLTNQEAQQWVSGWRLNADSVLWGGHKVFMVKPEEPFQPVKEATQL [K100I]	0.0673	–	0.0542	0.0499	–	–	0.0652	–	0.059	0.0692	0.0702	0.0615	0.0578	0.0595	–	–	–	–	–
MGESLFKGPRDYNPISSSICHLTNESDGHTTSLYGIGFGPFIITNKHLFRRNNGTLVVQSLHGVFKVKDTTTLQQHLVDGRDMIIIRMPKDFPPFPQKLKFREPQREEEICLVTTNFQTKSMSSMVSDTSCTFPSGDGIFWKHWIQTKDGQCGSPLVSTRDGFIVGIHSASNFTNTNNYFTSVPKNFMELLTNQEAQQWVSGWRLNADSVLWGGHKVFMVKPEEPFQPVKEATQL [R109E]	0.0633	0.0593	0.0726	–	–	0.0634	0.0529	–	0.0728	–	0.0671	0.0595	–	0.0572	0.0642	0.0481	–	–	–
MGESLFKGPRDYNPISSSICHLTNESDGHTTSLYGIGFGPFIITNKHLFRRNNGTLVVQSLHGVFKVKDTTTLQQHLVDGRDMIIIRMPKDFPPFPQKLKFREPQRGERICLVTTNFQTKSMSSMVSDTSCTFPSGDGIFWKHWIQTKDGQCGSPLVSTRDGFIVGIHSASNFTNTNNYFTSVPKNFMELLTNQEAQQWVSGWRLNADSVLWGGHKVFMVKPEEPFQPVKEATQL [E107G]	0.0535	0.0563	0.0505	0.0674	–	–	–	0.0501	–	0.064	–	0.0503	–	0.0506	0.0564	0.0429	0.0749	–	–
MGESLFKGPRDYNPISSSICHLTNESDGHTTSLYGIGFGPFIITNKHLFRRNNGTLVVQSLHGVFKVKDTTTLQQHLVDGRDMIIIRMPKDFPPFPQKLKFREPEREERICLVTTNFQTKSMSSMVSDTSCTFPSGDGIFWKHWIQTKDGQCGSPLVSTRDGFIVGIHSASNFTNTNNYFTSVPKNFMELLTNQEAQQWVSGWRLNADSVLWGGHKVFMVKPEEPFQPVKEATQL [Q105E]	0.0495	0.0645	0.0597	–	–	0.0578	0.078	0.0503	–	–	0.0551	0.0518	0.0682	0.0766	0.0613	–	0.0391	0.0593	–
MGESLFKGPRDYNPISSSICHLTNESDGHTTSLYGIGFGPFIITNKHLFRRNNGTLVVQSLHGVFKVKDTTTLQQHLVDGRDMIIIRMPKDFPPFPQTLKFREPQREERICLVTTNFQTKSMSSMVSDTSCTFPSGDGIFWKHWIQTKDGQCGSPLVSTRDGFIVGIHSASNFTNTNNYFTSVPKNFMELLTNQEAQQWVSGWRLNADSVLWGGHKVFMVKPEEPFQPVKEATQL [K98T]	0.0891	0.0711	0.0581	–	0.0658	0.0604	0.0389	–	0.0682	0.0678	0.0552	0.0646	0.0827	0.0499	0.0602	–	0.056	0.0742	–
MGESLFKGPRDYNPISSSICHLTNESDGHTTSLYGIGFGPFIITNKHLFRRNNGTLVVQSLHGVFKVKDTTTLQQHLVDGRDMIIIRMPKDFPPFPQGLKFREPQREERICLVTTNFQTKSMSSMVSDTSCTFPSGDGIFWKHWIQTKDGQCGSPLVSTRDGFIVGIHSASNFTNTNNYFTSVPKNFMELLTNQEAQQWVSGWRLNADSVLWGGHKVFMVKPEEPFQPVKEATQL [K98G]	0.0689	0.0595	0.0598	0.0556	–	0.0633	0.0782	–	0.0498	0.0426	0.0667	0.0557	0.056	0.0536	0.0645	0.0744	0.0585	0.0569	–
MGESLFKGPRDYNPISSSICHLTNESDGHTTSLYGIGFGPFIITNKHLFRRNNGTLVVQSLHGVFKVKDTTTLQQHLVDGRDMIIIRMPKDFPPFPQKLKFREPQREERICLQTTNFQTKSMSSMVSDTSCTFPSGDGIFWKHWIQTKDGQCGSPLVSTRDGFIVGIHSASNFTNTNNYFTSVPKNFMELLTNQEAQQWVSGWRLNADSVLWGGHKVFMVKPEEPFQPVKEATQL [V113Q]	0.0518	0.0608	0.0619	0.0571	0.0607	–	0.0522	0.0668	–	0.0495	0.0551	0.0493	0.0555	–	0.0613	0.0533	–	–	0.066
MGESLFKGPRDYNPISSSICHLTNESDGHTTSLYGIGFGPFIITNKHLFRRNNGTLVVQSLHGVFKVKDTTTLQQHLVDGRDMIIIRMPKDFPPFPQKLKFREPQREDRICLVTTNFQTKSMSSMVSDTSCTFPSGDGIFWKHWIQTKDGQCGSPLVSTRDGFIVGIHSASNFTNTNNYFTSVPKNFMELLTNQEAQQWVSGWRLNADSVLWGGHKVFMVKPEEPFQPVKEATQL [E108D]	0.0522	0.0711	0.0721	0.0642	0.0506	–	–	–	0.0612	0.0659	0.0645	0.0583	0.0651	0.0681	0.0539	–	–	0.0524	–
MGESLFKGPRDYNPISSSICHLTNESDGHTTSLYGIGFGPFIITNKHLFRRNNGTLVVQSLHGVFKVKDTTTLQQHLVDGRDMIIIRMPKDFPPFPQKLKFREPQREMRICLVTTNFQTKSMSSMVSDTSCTFPSGDGIFWKHWIQTKDGQCGSPLVSTRDGFIVGIHSASNFTNTNNYFTSVPKNFMELLTNQEAQQWVSGWRLNADSVLWGGHKVFMVKPEEPFQPVKEATQL [E108M]	0.0583	–	0.0606	–	0.0553	–	0.0666	0.0564	0.0598	0.0509	–	0.0386	–	0.0368	0.0619	–	0.0423	0.0679	0.0529
MGESLFKGPRDYNPISSSICHLTNESDGHTTSLYGIGFGPFIITNKHLFRRNNGTLVVQSLHGVFKVKDTTTLQQHLVDGRDMIIIRMPKDFPPFPQKLKFREPQREERICLVATNFQTKSMSSMVSDTSCTFPSGDGIFWKHWIQTKDGQCGSPLVSTRDGFIVGIHSASNFTNTNNYFTSVPKNFMELLTNQEAQQWVSGWRLNADSVLWGGHKVFMVKPEEPFQPVKEATQL [T114A]	0.0595	0.0669	0.0351	0.0592	0.0527	–	–	–	0.0616	0.0618	0.0639	–	0.0509	0.0777	0.07	–	0.0588	–	0.0605
MGESLFKGPRDYNPISSSICHLTNESDGHTTSLYGIGFGPFIITNKHLFRRNNGTLVVQSLHGVFKVKDTTTLQQHLVDGRDMIIIRMPKDFPPFPQKLKFREPQTEERICLVTTNFQTKSMSSMVSDTSCTFPSGDGIFWKHWIQTKDGQCGSPLVSTRDGFIVGIHSASNFTNTNNYFTSVPKNFMELLTNQEAQQWVSGWRLNADSVLWGGHKVFMVKPEEPFQPVKEATQL [R106T]	0.0672	0.0677	0.0601	0.0827	–	–	–	0.0838	–	0.0672	0.0618	0.0696	0.0737	0.0468	0.068	0.0591	–	0.0712	0.056
MGESLFKGPRDYNPISSSICHLTNESDGHTTSLYGIGFGPFIITNKHLFRRNNGTLVVQSLHGVFKVKDTTTLQQHLVDGRDMIIIRMPKDFPPFPQKLKFRVPQREERICLVTTNFQTKSMSSMVSDTSCTFPSGDGIFWKHWIQTKDGQCGSPLVSTRDGFIVGIHSASNFTNTNNYFTSVPKNFMELLTNQEAQQWVSGWRLNADSVLWGGHKVFMVKPEEPFQPVKEATQL [E103V]	0.0471	–	0.0617	0.0725	0.0646	0.0591	0.0635	0.0548	0.0583	–	0.0677	–	0.0678	0.0651	0.0652	0.0573	–	–	–
MGESLFKGPRDYNPISSSICHLTNESDGHTTSLYGIGFGPFIITNKHLFRRNNGTLVVQSLHGVFKVKDTTTLQQHLVDGRDMIIIRMPKDFPPFPQKLKFRHPQREERICLVTTNFQTKSMSSMVSDTSCTFPSGDGIFWKHWIQTKDGQCGSPLVSTRDGFIVGIHSASNFTNTNNYFTSVPKNFMELLTNQEAQQWVSGWRLNADSVLWGGHKVFMVKPEEPFQPVKEATQL [E103H]	0.0427	0.0643	0.0659	–	–	0.0873	0.0448	0.0616	–	–	0.0558	0.0595	0.054	0.0525	–	–	0.0594	0.0477	0.0619
MGESLFKGPRDYNPISSSICHLTNESDGHTTSLYGIGFGPFIITNKHLFRRNNGTLVVQSLHGVFKVKDTTTLQQHLVDGRDMIIIRMPKDFPPFPQKLKFREPQREERSCLVTTNFQTKSMSSMVSDTSCTFPSGDGIFWKHWIQTKDGQCGSPLVSTRDGFIVGIHSASNFTNTNNYFTSVPKNFMELLTNQEAQQWVSGWRLNADSVLWGGHKVFMVKPEEPFQPVKEATQL [I110S]	0.075	0.0582	0.0484	0.0568	0.0558	–	0.0795	–	–	0.037	0.0631	–	0.0615	–	0.0516	–	0.0574	0.0457	0.0415
MGESLFKGPRDYNPISSSICHLTNESDGHTTSLYGIGFGPFIITNKHLFRRNNGTLVVQSLHGVFKVKDTTTLQQHLVDGRDMIIIRMPKDFPPFPQKLKFREPQREERICEVTTNFQTKSMSSMVSDTSCTFPSGDGIFWKHWIQTKDGQCGSPLVSTRDGFIVGIHSASNFTNTNNYFTSVPKNFMELLTNQEAQQWVSGWRLNADSVLWGGHKVFMVKPEEPFQPVKEATQL [L112E]	0.0655	–	0.0578	–	0.0524	0.0549	–	–	–	0.0578	0.0601	0.0528	0.0446	0.0543	0.0569	–	0.0561	0.0481	0.0558
MGESLFKGPRDYNPISSSICHLTNESDGHTTSLYGIGFGPFIITNKHLFRRNNGTLVVQSLHGVFKVKDTTTLQQHLVDGRDMIIIRMPKDFPPFPQKLKFREPQREERICRVTTNFQTKSMSSMVSDTSCTFPSGDGIFWKHWIQTKDGQCGSPLVSTRDGFIVGIHSASNFTNTNNYFTSVPKNFMELLTNQEAQQWVSGWRLNADSVLWGGHKVFMVKPEEPFQPVKEATQL [L112R]	0.0542	–	0.0513	0.0649	0.054	0.0594	0.0566	0.0652	0.0463	–	0.064	–	0.0565	0.0298	0.0759	0.0559	–	–	0.0835
